In the supplement of paper PMC10126150:
Values marked as one replicate rest on one cluster of the flow cell; about a third of the high ones do not repeat.

System: ATP
Experiment: switch fluorescence ratio, 500 uM ATP over buffer (Cy3 cluster intensity, sum of 5 cycles each) (fold (ratio)); higher = stronger signal-on switching upon ATP binding; sequences stand for … in TCGTCGGCAGCGTCAGATGTGTATAAGAGACAGTTTTTTTTTTTTTTTTTTTTTTTTT…TC
Settings: aptamer strand: ATP DNA aptamer (quencher-CACCTGGGGGAGTATTGCGGAGGAAGG + anchor), 100 nM annealed; ATP concentration: 500 uM; one replicate
In short: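 Between each of five buffer/ATP cycles, the flow-cell was stripped with NaOH and re-annealed. Each cycle imaged Cy3-labelled switching-strand clusters, annealed to 100 nM quencher-labelled ATP aptamer on a modified Illumina MiSeq flow-cell, first in selection buffer and then after 15 min with 500 uM ATP at 22 °C. The fluorescence ratio is summed target-cycle over summed buffer-cycle Cy3 intensity per cluster, averaged per switch-domain sequence, with clusters outside 100-1000 RFU excluded.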
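Note: ATP exposure 15 min at 22 °C before imaging.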

| Sequence | switch fluorescence ratio |
| --- | --- |
| TGAAAGCAAG | 1.2 |
| GATCTTGTCC | 0.961 |
| CCGAACAGAG | 1.27 |
| TTTTAATTAC | 0.968 |
| AGCGGCGGTC | 1.04 |
| GCCCGGAGAT | 1.04 |
| ACAAATTTTA | 0.994 |
| AGTGGTGACG | 0.946 |
| GTCATCGGCG | 0.999 |
| TTTGGGCTTT | 0.992 |
| CATCTCAGTT | 1.05 |
| ATCTGTGTAT | 0.999 |
| AGACAACATT | 1.02 |
| CAGAAACATA | 1.03 |
| CCTAGGTCTA | 1.01 |
| ATGAACTTTT | 0.991 |
| TAATCGTACC | 1.08 |
| AGCTGGGTGA | 1.03 |
| CGATGGCCTG | 1.03 |
| GGGTGCGGT | 1.01 |
| TAATCGGTCT | 0.957 |
| TTTCAAGCGT | 1.04 |
| CCATCTAAAT | 0.987 |
| GCATGTCAAT | 1 |
| CTCTGTTAGG | 1 |

| Sequence | switch fluorescence ratio |
| --- | --- |
| ACAGAGTCGA | 1.01 |
| TTACATTGAT | 0.999 |
| TTTAAGCCGT | 1.03 |
| CCGAGGGGTG | 1.17 |
| GAGCCTATCG | 0.941 |
| GACTTTTAAA | 1.04 |
| CGTATGAATT | 1.01 |
| GAATAGCATT | 0.992 |
| AGAATACGA | 1.05 |
| TACTTTATGT | 1.03 |
| AGAGTATTTC | 1.03 |
| CGTGGTGTAT | 1.01 |
| TTACCCTCAT | 1.1 |
| ATAAGTCGTA | 0.929 |
| GACCTTTTGT | 1.05 |
| TCGTGATGA | 1.01 |
| GAAGGCAGTA | 1.04 |
| GCTGGGGAGA | 1.04 |
| ATGATGTCAG | 0.97 |
| GATACCTGAG | 1.51 |
| TGTCACTCT | 0.97 |
| TGTGATCCGG | 1.04 |
| GAAAGGGCAC | 1 |
| GGTGAAACTT | 1.04 |
| CAGGTAGAGG | 1.04 |

| Sequence | switch fluorescence ratio |
| --- | --- |
| GACTTGGAGC | 1.03 |
| AGCAGACAGC | 1.02 |
| TAAGATGCAG | 1.06 |
| GAGCACGCGG | 1.04 |
| TTCAACCCTC | 1.02 |
| TAGAAGCCAG | 1.02 |
| TTCAGAACAT | 1 |
| GTAGGCACTC | 1.02 |
| GCGACCGTTG | 0.994 |
| CTGATGCTA | 1.61 |
| TATATCCGGG | 0.975 |
| GATCTGGCGT | 0.95 |
| TCCTAAAATA | 1.04 |
| TAAAACATGA | 0.943 |
| TGTATGTATA | 1.06 |
| GATGAATGCC | 0.967 |
| CTTGAGCCTG | 1.01 |
| GTTTTTAGTC | 0.954 |
| ACCGAAGGTT | 1.01 |
| CCGGTGAGAA | 1.01 |
| ATTAGATGG | 1.02 |
| CGTTGGAACG | 0.989 |
| GATCTAGGGG | 0.975 |
| TAACGCACTT | 1.48 |
| CACCGGAGCA | 4 |

| Sequence | switch fluorescence ratio |
| --- | --- |
| ATAGGGGGT | 0.986 |
| GAGCTCGGAA | 0.976 |
| TGGTGATTAA | 0.99 |
| TAATACAAGC | 1.03 |
| TCCTTAAGCG | 1.2 |
| GGTAATTGAT | 1.03 |
| TTGAATTCCA | 0.92 |
| TGTGAGCTAA | 1.01 |
| TCGTTCAGCC | 0.982 |
| GTATGGTAGA | 0.974 |
| CGCGTCTGGT | 0.996 |
| TCGCCTTTAG | 1.01 |
| CCTCTTCATG | 1.24 |
| TGATGGATCA | 0.998 |
| TCTGGTCAGA | 0.996 |
| TATACAGAGT | 1.03 |
| TTATAAAATC | 1.01 |
| GGGGGGTA | 0.995 |
| GGCTCTCAGC | 0.969 |
| CACGGAAGGG | 1.03 |
| TTGTAAAGCG | 0.978 |
| CATATTGGTG | 0.982 |
| TATATAGCTT | 1.09 |
| CTTGGACCAG | 1.04 |
| AATAGCATC | 1.03 |

| Sequence | switch fluorescence ratio |
| --- | --- |
| GTAATGAAAG | 0.976 |
| TTATCACAGT | 1.03 |
| GTAGTAGCTG | 0.999 |
| TCATAAGATA | 1.03 |
| TATTACTTAC | 1.39 |
| GGGGTCGGC | 0.933 |
| AGTGCATCGT | 1.06 |
| GTCGGAATCG | 1.04 |
| TCATAATACA | 1.02 |
| GTAAGAGGGA | 0.979 |
| GCGCAGATCC | 1.3 |
| AGTCTGCGGG | 0.997 |
| TGCTTGAATA | 0.997 |
| TCTGTTCGGT | 0.954 |
| GTATCTAGGG | 0.973 |
| CGATTTTG | 1 |
| TGGTGTAGA | 1.01 |
| GGTACGAGTA | 0.97 |
| ATTAATACA | 0.981 |
| GGAGGATGTA | 0.972 |
| ACGGTCACCG | 0.969 |
| ATGCGACACC | 1.07 |
| TCAGCGTATC | 1.07 |
| ATCGGTGCCT | 1 |
| CTCACTTAGT | 1.07 |

| Sequence | switch fluorescence ratio |
| --- | --- |
| CGGTGATTAG | 1.01 |
| GGACGAGGCA | 1.29 |
| AGAATCATTC | 0.977 |
| TATAGCTATA | 0.974 |
| TATCGCCCTG | 1.05 |
| AGAAGTGATG | 1.03 |
| ACCCGTCGCT | 1.07 |
| CCCCCCTCTA | 1.06 |
| CAGTCAGATA | 0.991 |
| GTGATATGAC | 1.05 |
| GTGTCTCACA | 0.98 |
| GCCCTAGTCA | 0.988 |
| CCTATACGTT | 1.03 |
| TCCTCGGGGT | 1.05 |
| AGTGATCGTT | 1.01 |
| AGGGCGTGGG | 1.02 |
| AAAGCTGACA | 0.972 |
| GAAACGCGC | 1.06 |
| TTATGTCCT | 1 |
| CCAGAGTTGG | 1 |
| TTAATTGACC | 1.05 |
| AGTGGAAAAG | 1.01 |
| AGGTACACTG | 1.06 |
| AGGGGGTCCT | 0.966 |
| GGGGGCCGAA | 1.01 |

| Sequence | switch fluorescence ratio |
| --- | --- |
| TTATCGGACT | 1.03 |
| CGCGTATGTG | 1.02 |
| CACTTATTAA | 1.04 |
| ACCAGTCAAC | 1.04 |
| ACACCTTTAT | 1.02 |
| ATTTTGGACT | 1.04 |
| CACGAATCTG | 0.999 |
| TAATTGGAGC | 1.17 |
| TATGGCTCCG | 1.05 |
| GGTAAGAGTC | 1.07 |
| CACTAGGACT | 1.03 |
| TTTTCACATC | 1.07 |
| GATTAAGCG | 1 |
| TATATTATGT | 1.01 |
| ATCTGTCAAT | 1.21 |
| GCCAAAATG | 0.982 |
| GCGGAGGTTC | 1.01 |
| ATGTGAGCGA | 1.03 |
| GGTGCAGAGT | 0.971 |
| TATCGCTCTA | 0.952 |
| CGTTTTAATC | 1.05 |
| AGTGGTTGAT | 0.976 |
| CGGATAGGGC | 1.01 |
| TGCGAAGGGC | 1.01 |
| CCATTTTACT | 1.04 |

| Sequence | switch fluorescence ratio |
| --- | --- |
| CGAGGTTCTT | 1.02 |
| ATCGATGTCC | 1.05 |
| TCGGCAGATT | 0.997 |
| GTAGTCCATA | 1.03 |
| GCCAACGCGT | 0.998 |
| CGCAGTCGAA | 1.04 |
| GTTACATGGG | 1.05 |
| TTTGGCAGAT | 1.05 |
| GGCCCAAAAG | 0.973 |
| GGAGGTTGTT | 0.968 |
| AGCAATGATG | 1.18 |
| GAACCAGAGT | 1.01 |
| ATATGGGCTC | 0.97 |
| TAAGCACGCG | 1.03 |
| TATGGCCGTA | 0.971 |
| GTGTGAGTAC | 0.953 |
| AGTGACTTGC | 0.983 |
| GCGCAGAGTC | 1.17 |
| AGACTCTCCA | 1.02 |
| CCGCATTTGG | 4.1 |
| AACTTGTTCC | 1.06 |
| TACCTAAGGC | 1.14 |
| GTGGGGCTTT | 0.992 |
| AAGCAGATGT | 0.95 |
| TCAGTTGTAA | 1 |
